# Measured values as given in PubChem BioAssay AID652104 (National Center for Advancing Translational Sciences (NCATS), 2013).
# About 7,200 (1.8%) of roughly 410,000 compounds were called active. Inconclusive results, whose numbers are uncertain, are shown with a selection of clear calls. Calls follow the shape of the dose curve; as a rule, active = well fitted activation curve with a large enough effect; inconclusive = small, poorly fitted or top-dose-only effect, or another doubt; inactive = no such curve, though single readings can be large or run the other way. Potencies of inconclusive entries are left out as doubtful fits.
# Assay: qHTS of TDP-43 Inhibitors; also: nearly all actives have a fitted effect of over 50% in size; as to growth rescue (activation): % of control where 0% means no effect
# Settings: TDP-43 expressing yeast growth rescue, BacTiter-Glo, 24 h; growth rescue (activation): at 46.1 µM (top of the series)
# Procedure, shortened: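 Growth rescue of TDP-43-toxic yeast measured as ATP luminescence (BacTiter-Glo). Cells grown to mid-log in raffinose, induced in galactose at OD600=0.02, exposed to compound 24 hr at 30 deg C.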
# Potency is read from the fitted curve at half-maximal effect; tags tell the direction and shape of the fitted curve.
Compound,Potency,growth rescue (activation)
COC1=CC(=O)OC(/C=C/c2ccccc2)C1 (stereo not drawn),"inconclusive [activator, partial curve]",
S=C(NCCc1ccccc1)N1Cc2ccc(Br)cc2-n2nncc2C1,active: 25.1 µM,
Cc1cc(C(=O)OCC(=O)Nc2ccccc2F)c(C)n1C1CC1,"inconclusive [activator, single point]",
C#CCOc1ccc2c(c1)c(C(C)=O)c(C)n2Cc1ccccc1,active: 20 µM,
Cc1cc2oc(=O)cc(-c3ccccc3)c2c(C)c1-c1ccc(CO)cc1,active: 35.5 µM,
O=[N+]([O-])c1c2ccccc2cc2ccccc12,"inconclusive [activator, partial curve]",
CCOP(=S)(OCC)N1CC1,"inconclusive [activator, partial curve]",
COC(=O)COc1cc(C)cc2oc(=O)c3c(c12)CCCC3,"inconclusive [activator, single point]",
c1cc2c(cc1[C@H]1OCC3C1CO[C@@H]3c1ccc3c(c1)OCO3)OCO2 (stereo partly drawn),active: 11.2 µM,
COc1ccc(N2C(=O)/C(=C/c3ccc(C)o3)C(=O)NC2=S)cc1,active: 7.08 µM,
O=C(CCc1ccccc1)N1Cc2cc(-c3cccc(F)c3)ccc2-n2nncc2C1,"inconclusive [activator, partial curve, poor fit]",
CN(c1ccccc1)c1ccc([N+](=O)[O-])c2nonc12,"inconclusive [activator, single point]",
O=P1(N(CCCl)CCCl)NCCCO1 (stereo not drawn),"inconclusive [activator, partial curve, poor fit]",
COC1CC2C=C(C)C=CC=CC(=O)NC(c3ccccc3)CC=CCCC(O)CC(=O)C2=C1O (stereo not drawn),,inconclusive: -91.5% [activator]
COc1ccccc1OCCCn1cc(C(=O)c2ccco2)c2ccccc21,"inconclusive [activator, single point]",
CCCn1c(C)c(C(=O)c2cccc3ccccc23)c2ccccc21,"inconclusive [activator, full curve, poor fit]",
COc1ccccc1N=Nc1ccc(N)c(C)c1,"inconclusive [activator, partial curve]",
S=P(Nn1cnnc1)(c1ccccc1)c1ccccc1,inactive,
O=Cc1cn(Cc2c(F)cccc2Cl)nc1-c1ccccc1,"inconclusive [activator, single point]",
COc1cc(Cl)c(C)cc1NC(=O)CCCn1c(=O)oc2ccccc21,"inconclusive [activator, single point]",
Cc1cc(C)c2c(c1)NP(=S)(c1ccccc1)N2 (stereo not drawn),"inconclusive [activator, single point]",
CC1CCN(C(=O)CCl)CC1,"inconclusive [activator, partial curve]",
Cc1ccc(CN2C(=O)CN=C(c3ccccc3)c3ccccc32)cc1,"inconclusive [activator, single point]",

Compound,Potency,growth rescue (activation)
N#CSCC(=O)N1c2ccccc2CCc2ccccc21,active: 17.8 µM,
Cc1ccc(CSCCNS(=O)(=O)c2ccc([N+](=O)[O-])cc2)cc1,"inconclusive [activator, single point]",
COc1cc(C(=O)N2Cc3ccc(Br)cc3-n3nncc3C2)cc(OC)c1OC,"inconclusive [activator, full curve]",
COC(=O)C1=C(c2ccc(OC(F)(F)F)cc2)C[C@@H]2CC[C@H]1N2C(=O)NCc1cccc2ccccc12,"inconclusive [activator, single point]",
Cc1cccc(OCCn2c(=O)oc3ccc(C)cc32)c1,active: 14.1 µM,
N#CC(C#N)=C(C#N)c1ccc(Nc2ccccc2)cc1,"inconclusive [activator, single point]",
COCCNc1oc(-c2ccc(OC)cc2)nc1C#N,"inconclusive [activator, partial curve, poor fit]",
Cc1ccc(CN2CCN(Cc3ccccc3)CC2)cc1,"inconclusive [activator, partial curve]",
Cc1cc(OC(=O)c2cccs2)c2c3c(c(=O)oc2c1)CCCC3,"inconclusive [activator, single point]",
O=C(Nc1ccc(F)cc1F)c1cccn(Cc2ccccc2)c1=O,,inactive: 1.2% [at 9.22 µM]
c1ccc(-c2ccc(CN3Cc4ccccc4-n4nncc4C3)cc2)cc1,"inconclusive [activator, partial curve]",
CCN(CC)S(=O)(=O)c1ccc(N=Cc2c(O)n(-c3ccccc3)c(=O)[nH]c2=O)cc1,inactive,
O=C1NC(=O)C(=Cc2ccc(OCCOc3ccc([N+](=O)[O-])cc3)cc2)C(=O)N1,"inconclusive [activator, single point]",
CC1CCN(c2nc(NCc3ccco3)nc(N)c2[N+](=O)[O-])CC1,"inconclusive [activator, partial curve]",
O=C1OC(=O)C2C1[C@@H]1CC[C@H]2O1 (stereo partly drawn),"inconclusive [activator, full curve, poor fit]",
CC/C(=N\N1CCCCCC1)c1c(O)n(-c2ccc(C)cc2)c(=O)[nH]c1=O,"inconclusive [activator, single point]",
Cc1ccc2c(Cl)cc(Cl)c(O)c2n1,inactive,
COC(=O)C1CN(C#N)N(c2ccc(Cl)cc2)C12c1ccccc1-c1ccccc12 (stereo not drawn),active: 15.8 µM,
Cc1ccc(C(=O)Cn2c(-c3ccccc3)noc2=O)cc1,"inconclusive [activator, partial curve, poor fit]",
Cc1ccc(Cl)cc1N1CCN(c2ncnc3c2nc2n3CCCC2)CC1,active: 14.1 µM,
C/C(=N\NC(N)=S)C12CC3CC(CC(C3)C1)C2,active: 14.1 µM,
CN1C(=O)C(C)(C2=CCCCC2)C(=O)NC1=S (stereo not drawn),"inconclusive [activator, partial curve]",
Nc1c(Br)cc(Br)cc1CNC1CCC(O)CC1 (stereo not drawn),"inconclusive [activator, full curve]",

Compound,Potency,growth rescue (activation)
Cc1c(C(c2ccccc2Cl)c2c(O)c3ccccc3oc2=O)c(=O)n(-c2ccccc2)n1C (stereo not drawn),active: 7.94 µM,
CCOC(=O)[C@]12Cc3ccccc3[C@H]1N(C)C(=O)c1cc(OC)ccc12,active: 35.5 µM,
COC(=O)C1=C(c2ccc(OC)c(OC)c2)C[C@@H]2CC[C@H]1N2C(=O)NCc1ccco1,inactive,
O=S1(=O)OCCC(c2ccccc2)N1Cc1ccccc1 (stereo not drawn),"inconclusive [activator, partial curve]",
O=S(=O)(c1ccc(Cl)cc1)N1Cc2ccccc2-n2nncc2C1,"inconclusive [activator, partial curve]",
O=C(Nc1cccc(C(F)(F)F)c1)C1CCCN1S(=O)(=O)c1cccc2nsnc12 (stereo not drawn),"inconclusive [activator, single point]",
CN=C(SCc1ccccc1)c1c(O)n(C)c(=O)n(C)c1=O,inactive,
COc1ccc(-c2nc(CSCC(=O)N3CCN(c4ccc(F)cc4)CC3)c(C)o2)cc1,"inconclusive [activator, partial curve]",
CC(=O)O/C(=C1\CC2C3CC=C4CC(OC(C)=O)CCC4(C)C3CCC2(C)C1=O)C(F)(F)F (stereo not drawn),"inconclusive [activator, single point]",
CCOC(=O)[C@]12Cc3ccccc3[C@H]1N(C1CCCCC1)C(=O)c1cc(OC)ccc12,,inconclusive: -86.4% [activator]
O=C(O)c1cc[c]([Hg][Cl])cc1,,inconclusive: -90.8% [activator]
COC(=O)C1=C(c2ccc(OC(F)(F)F)cc2)C[C@@H]2CC[C@H]1N2C(=O)NCCOc1ccccc1Cl,active: 28.2 µM,
C[C@]12CCC(=O)C=C1CCC1C2CC[C@@]2(C)C1CC[C@]2(C)O (stereo partly drawn),"inconclusive [activator, single point]",
Oc1cc2c(cc1CN1CCN(c3ccccc3)CC1)OCO2,inactive,
CC1=CC2OC3CC4OC(=O)C=CC=CC(C(C)O)OCC(O)C(C)CC(=O)OCC2(CC1O)C4(C)C31CO1 (stereo not drawn),"inconclusive [activator, partial curve]",
COC(=O)C1=C(c2cccc3c2S(=O)(=O)c2ccccc2-3)C[C@@H]2CC[C@H]1N2C(=O)N1CCc2cc(OC)c(OC)cc2C1,"inconclusive [activator, single point]",
Cc1cccc(Cn2cccc(C(=O)Nc3ccc4c(c3)OCCO4)c2=O)c1,inactive,
NC(Cc1ccc(C(F)(F)F)cc1)c1csc(Nc2nncc3ccccc23)n1 (stereo not drawn),"inconclusive [activator, partial curve, poor fit]",
COC(=O)c1sc(NC(=O)/C=C/c2ccc(OC)c(OC)c2)c(C(=O)OC)c1C,"inconclusive [activator, partial curve]",
Cc1cccc(-n2c(O)c(/C=N/Nc3nc4c(c(=O)n(C)c(=O)n4C)n3C)c(=O)[nH]c2=S)c1,"inconclusive [activator, full curve]",
Cc1nn(Cc2ccccc2)c(Cl)c1C(=O)NC1CCCc2ccccc21 (stereo not drawn),"inconclusive [activator, partial curve]",
CN(C)C(=O)O/N=C(\N)COc1ccc(C(C)(C)C)cc1,,inconclusive: -93.7% [activator]
